Experimental data reported in PubChem BioAssay AID624417 (National Center for Advancing Translational Sciences (NCATS), 2012).
In all, about 410,000 compounds went through this assay and about 6,400 (1.6%) were called active. The shares of active, inactive and inconclusive entries below differ from those in the screen. Calls follow the shape of the dose curve; as a rule, active = well fitted inhibition curve with a large enough effect; inconclusive = small, poorly fitted or top-dose-only effect; inactive = no such curve, though single readings can be large or run the other way. Where the call is inconclusive, the potency comes from a doubtful curve fit.

molecular target: Glucagon-like peptide 1 receptor (Homo sapiens) (UniProt P43220); assay: qHTS of GLP-1 Receptor Inverse Agonists (Inhibition Mode); conditions: HEK293 GLP-1R CRE-luciferase, luminescence, 24 h, GLP-1R form is constitutively active; series mostly up to 38.3 µM; also: nearly all actives have a fitted effect of over 55% in size
Sequence of UniProt P43220 (P43220 whole entry, looked up): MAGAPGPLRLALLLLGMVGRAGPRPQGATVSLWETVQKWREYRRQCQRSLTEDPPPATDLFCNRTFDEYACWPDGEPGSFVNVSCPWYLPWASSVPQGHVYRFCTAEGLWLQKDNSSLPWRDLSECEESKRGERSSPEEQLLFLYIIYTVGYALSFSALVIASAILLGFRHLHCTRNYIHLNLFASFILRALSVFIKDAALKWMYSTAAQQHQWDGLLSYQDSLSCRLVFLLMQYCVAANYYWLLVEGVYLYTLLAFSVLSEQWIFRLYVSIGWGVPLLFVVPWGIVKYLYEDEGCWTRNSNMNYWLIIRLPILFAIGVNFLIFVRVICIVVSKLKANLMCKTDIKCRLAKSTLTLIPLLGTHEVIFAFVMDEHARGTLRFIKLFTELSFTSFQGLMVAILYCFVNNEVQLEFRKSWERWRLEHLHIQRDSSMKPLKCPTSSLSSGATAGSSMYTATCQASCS
In short: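 Stable HEK293 clone (constitutively active GLP-1R + cAMP-response luciferase); 200 cells/uL plated, 12 h pre-culture, compound 24 hr, 37 deg C/5% CO2; detection reagent 12 min RT; luminescence.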
Potency is read from the fitted curve at half-maximal effect; tags tell the direction and shape of the fitted curve.

Potency, inactive:
CC(=O)Nc1cccc(NC(=O)CSc2ccc(-c3sc(-c4ccccc4)nc3C)nn2)c1
COC(=O)Cc1cc(=O)n2[nH]cnc2n1
COc1cc(NC(=O)c2cc([N+](=O)[O-])ccc2N2CCOCC2)ccc1NC(=O)c1ccco1
Cc1ccc(Cl)cc1NC(=O)Cn1c(=O)n(C(C)C)c(=O)c2oc3ccccc3c21
CCCC(=O)Nc1cccc(-c2cn3c(C)csc3n2)c1
COC(=O)c1sccc1NC(=O)c1cc(C)on1
O=C(Nc1cccnc1)C1=NN(C2CCS(=O)(=O)C2)C(=O)CC1 (configuration not stated)
O=c1[nH]c(SCc2nc3ccccc3n2Cc2ccccc2)nc2ccccc12
Cc1cc(C(=O)NNC(=O)c2ccc(C)s2)c(C)o1
CCOC(=O)N1CCN(c2nc3ccccc3n3cnnc23)CC1
O=C(NCC(c1ccco1)S(=O)(=O)c1cccs1)c1ccc(Cl)cc1 (configuration not stated)

Potency, active:
Cc1cc(NC(=O)c2cccn2-c2nnc(N3CCCCC3)s2)ccc1Br 10 µM

Potency, inconclusive:
O=C(NCCN1CCCCC1)Nc1ccc([N+](=O)[O-])cc1 10 µM [inhibitor, single point]
OC(c1ccc(F)c(F)c1)c1nc(-c2cnc3ccccc3c2)cs1 (configuration not stated) 31.6 µM [inhibitor, single point]
C(=N\N(c1ccccc1)c1ccccc1)/c1ccccn1 11.2 µM [inhibitor, partial curve, poor fit]
Cn1cc(SCC(=O)NCc2ccc3c(c2)OCO3)c2ccccc21 28.2 µM [inhibitor, single point]
COc1cc2ccccc2cc1C(=O)N(CCN(C)C)c1nc2c(OC)ccc(OC)c2s1 10 µM [inhibitor, partial curve, poor fit]
N#Cc1ccccc1Cn1cc(/C=N/Nc2ccc([N+](=O)[O-])cn2)c2ccccc21 1.41 µM [inhibitor, full curve]
CC1(C(=O)NCc2cccc3ccccc23)CCN1C(=O)Cc1ccc(-c2ccccc2)cc1 (configuration not stated) 10 µM [inhibitor, partial curve, poor fit]
O=C(CCCOc1ccc(Cl)cc1Cl)N/N=C/c1ccco1 15.8 µM [inhibitor, partial curve, poor fit]
CC(C)CSC1=NSC2=NC(=O)/C(=C\c3coc4ccccc4c3=O)C(=N)N12 28.2 µM [inhibitor, partial curve, poor fit]
CCn1c(SCC(=O)N(C(C)C)C(C)C)nnc1-c1cc2ccccc2cc1O 28.2 µM [inhibitor, single point]
COC(=O)c1ccc(-c2ccc([C@H]3[C@H]4C=CC[C@@H](C)[C@@H]4C(=O)N3Cc3ccccc3)c(F)c2)cc1 12.6 µM [inhibitor, partial curve, poor fit]
Cc1ccc(CSCC(=O)N(C)CC(=O)Nc2ccccc2Cl)cc1 10 µM [inhibitor, partial curve, poor fit]
Cc1cccc(Nc2nnc(-c3ccc(C)c(S(=O)(=O)N4CCN(C)CC4)c3)c3ccccc23)c1 28.2 µM [inhibitor, single point]
Cc1cc2nc(-c3cccc(Br)c3)c(CC(C)(C)C)n2c(C)c1Br 10 µM [inhibitor, partial curve]
CC(=O)Nc1ccc(S(=O)(=O)N2CCN(c3cc(C(F)(F)F)ccn3)CC2)cc1 4.47 µM [inhibitor, single point]
CC1=CSC2=NC(=O)/C(=C/c3cccc(OC(=O)c4ccco4)c3)C(=N)N12 12.6 µM [inhibitor, partial curve]
N#C/C(=C\c1c(Cl)cccc1Cl)c1nc2ccccc2[nH]1 7.08 µM [inhibitor, partial curve, poor fit]
COC(=O)c1ccc(Oc2c(F)c(F)nc(N3CCOCC3)c2F)cc1 10 µM [inhibitor, partial curve, poor fit]
Cc1ccc(/C=C2/Sc3ccccc3N(CC(=O)NCC3CCCO3)C2=O)cc1 (configuration not stated) 28.2 µM [inhibitor, single point]
OC(c1ccc(F)cc1)(C1CCCCC1)C(CN1CCOCC1)c1ccccc1 (configuration not stated) 22.4 µM [inhibitor, single point]
CC(C)c1ccc(NC(=O)[C@H]2CSCN2C(=O)[C@@H]2CCC(=O)N2)cc1 2 µM [inhibitor, full curve]
O=C(N/C=N/OCc1ccc(Cl)cc1Cl)NOCc1ncc(C(F)(F)F)cc1Cl 28.2 µM [inhibitor, single point]
COc1ccccc1NS(=O)(=O)c1cc(NC(=O)C(C)C)ccc1N1CCCCC1 14.1 µM [inhibitor, single point]
CCC(C)NCCCCOc1ccc(C)cc1[N+](=O)[O-] (configuration not stated) 17.8 µM [inhibitor, single point]
Fc1ccccc1CNCCC(Cc1ccccc1)c1ccc2c(c1)OCO2 (configuration not stated) 15.8 µM [inhibitor, single point]
CCN1C=C(Cc2cccs2)C2=C(C1)C(c1cccs1)C(C#N)=C(N)O2 (configuration not stated) 28.2 µM [inhibitor, single point]
O=C(Cc1ccccc1F)Nc1ccc(S(=O)(=O)N2CCCC2)cc1 10 µM [inhibitor, single point]
CNC(=S)N/N=C/c1c(Cl)cccc1Cl 10 µM [inhibitor, partial curve, poor fit]
Cc1ccc(C(=O)C2Oc3ccccc3C3CC(c4ccc(C)cc4)=NN23)cc1 (configuration not stated) 11.2 µM [inhibitor, single point]
CCNC(=S)N/N=C1\C(=O)c2cccc3cccc1c23 5.01 µM [inhibitor, full curve, poor fit]
CN1CCN(c2ccc(NC(=O)COc3ccccc3)cc2Cl)CC1 1.78 µM [inhibitor, partial curve, poor fit]
CC(C)C1C(=O)N(Cc2cn(CC3CCCCC3)nn2)CCS(=O)(=O)N1Cc1ccc(-c2cccc(CO)c2)cc1 (configuration not stated) 8.91 µM [inhibitor, partial curve, poor fit]
Cc1nn(C(=O)c2ccoc2C)c(N)c1-c1ccccc1 31.6 µM [inhibitor, single point]
CCCCN(CCCC)C(=O)C1(P(=O)(c2ccccc2)c2ccccc2)CCC1 28.2 µM [inhibitor, single point]
COc1cc(/C=C(\C#N)c2nc3ccccc3[nH]2)cc(Br)c1OCc1ccccc1 11.2 µM [inhibitor, single point]
CCN1CCN(c2ccc(S(=O)(=O)N3CCCCC3)cc2NC(=O)/C=C/c2ccc(OC)c(OC)c2)CC1 8.91 µM [inhibitor, partial curve, poor fit]
Cc1ccc(CNC(=O)CN2c3cccc4cccc(c34)S2(=O)=O)cc1 28.2 µM [inhibitor, single point]
CCCCCCCCNCCS(=O)(=O)NCc1ccccc1 12.6 µM [inhibitor, single point]
O=C(Nc1cccs1)Nc1ccccc1Br 14.1 µM [inhibitor, single point]
CC1CCN(C(C(=O)Nc2ccc3c(c2)OCO3)c2ccccc2)CC1 (configuration not stated) 28.2 µM [inhibitor, single point]
COc1ccc(C2(C)NC(=O)N(CC(=O)Nc3ccc4c(c3)CCC4)C2=O)cc1OC (configuration not stated) 31.6 µM [inhibitor, partial curve, poor fit]
CCCC(=O)c1ccc(N2CCN(C(=O)c3ccccc3)CC2)c(F)c1 3.16 µM [inhibitor, partial curve, poor fit]
CCCCC(CCCCl)C(=O)Nc1ccccc1 (configuration not stated) 28.2 µM [inhibitor, single point]
O=C(OCCN1C(=O)c2cccc3c(N4CCOCC4)ccc(c23)C1=O)c1cccc(Cl)c1 15.8 µM [inhibitor, partial curve, poor fit]
COc1ccc2oc(C(=O)N(C)Cc3ccc4c(c3)OCCO4)c(C)c2c1 20 µM [inhibitor, single point]
Cc1ccc(NC(=O)C2COc3ccccc3O2)cc1S(=O)(=O)N1CCCCC1 (configuration not stated) 11.2 µM [inhibitor, single point]
O=C(NC1CCCC1)c1nc2c(nnn2Cc2cccc(Cl)c2)c(=O)[nH]1 11.2 µM [inhibitor, partial curve, poor fit]
CCN(CC)S(=O)(=O)c1ccc(N2CCCC2)c(NC(=O)Cc2ccc(OC)cc2)c1 12.6 µM [inhibitor, partial curve, poor fit]
Cc1cc2occ(CC(=O)N(C)CC(=O)Nc3c(C)cccc3C)c2cc1C 11.2 µM [inhibitor, partial curve, poor fit]
Cc1cc(C(=O)NCc2ccccc2Cl)c2c(C)nn(-c3cccc(F)c3)c2n1 3.16 µM [inhibitor, partial curve, poor fit]
